# Experimental data published in publication PMC4336329 (PLoS ONE, 2015).
# The campaign covered roughly 310,000 compounds. About 14,000 (4.5%) showed an effect of 50% or more. Effects have a minus sign here. This is one part of the list.
# Target: human ether-à-go-go-related gene (hERG) potassium channel (human, UniProt Q12809)
# Test: primary screen, population patch clamp on CHO cells stably expressing hERG
# 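Also: peak tail current of the secondary pulse compared with the same well before compound.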
# human ether-à-go-go-related gene (hERG) potassium channel, sequence (Q12809 whole entry, looked up): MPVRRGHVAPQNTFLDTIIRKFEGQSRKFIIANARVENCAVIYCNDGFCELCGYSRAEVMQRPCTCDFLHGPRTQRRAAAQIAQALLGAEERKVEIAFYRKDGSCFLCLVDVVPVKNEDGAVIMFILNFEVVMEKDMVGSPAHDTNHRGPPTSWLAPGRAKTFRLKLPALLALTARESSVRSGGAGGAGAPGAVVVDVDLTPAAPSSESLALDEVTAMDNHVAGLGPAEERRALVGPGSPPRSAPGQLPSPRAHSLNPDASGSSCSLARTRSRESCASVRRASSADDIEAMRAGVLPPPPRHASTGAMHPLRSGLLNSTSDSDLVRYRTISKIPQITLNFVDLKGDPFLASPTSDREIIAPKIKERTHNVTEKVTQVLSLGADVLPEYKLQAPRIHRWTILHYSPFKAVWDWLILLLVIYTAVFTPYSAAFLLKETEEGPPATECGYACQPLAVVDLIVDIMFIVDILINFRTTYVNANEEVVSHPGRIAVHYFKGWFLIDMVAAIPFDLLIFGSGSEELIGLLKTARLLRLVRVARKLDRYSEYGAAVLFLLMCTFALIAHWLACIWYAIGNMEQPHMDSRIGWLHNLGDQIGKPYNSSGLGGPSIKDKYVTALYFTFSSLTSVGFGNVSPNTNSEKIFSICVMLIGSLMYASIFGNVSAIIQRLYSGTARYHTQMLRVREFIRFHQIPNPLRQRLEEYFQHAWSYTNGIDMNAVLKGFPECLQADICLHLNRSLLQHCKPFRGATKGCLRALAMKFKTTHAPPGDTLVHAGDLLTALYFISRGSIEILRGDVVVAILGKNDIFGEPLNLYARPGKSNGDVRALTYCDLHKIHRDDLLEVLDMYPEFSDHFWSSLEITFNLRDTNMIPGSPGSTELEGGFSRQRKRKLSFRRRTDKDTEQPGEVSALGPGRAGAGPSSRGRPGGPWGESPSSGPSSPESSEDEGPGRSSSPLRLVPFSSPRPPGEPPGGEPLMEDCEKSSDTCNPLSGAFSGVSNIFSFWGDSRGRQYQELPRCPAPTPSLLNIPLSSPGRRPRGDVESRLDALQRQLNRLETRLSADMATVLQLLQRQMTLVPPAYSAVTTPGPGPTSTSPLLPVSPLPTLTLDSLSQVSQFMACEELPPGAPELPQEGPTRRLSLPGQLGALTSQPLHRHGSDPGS
row,SMILES,"hERG current change (%, negative = inhibition) at 10uM"
1,COc1ccccc1N1CCN(C(=O)/C=C/c2ccc(C)cc2)CC1,-11.2%
2,Cc1ccc(NC(=O)c2cc3ccccc3oc2=N)cc1,23.8%
3,CN(C)NC1=CC(=[N+]2CCCC2)CC(C)(C)C1.[I-],14.6%
4,NS(=O)(=O)c1cccc(NC(=O)CC23CC4CC(C2)CC(CC(=O)Nc2cccc(S(N)(=O)=O)c2)(C4)C3)c1,9.49%
5,Cc1ccc(NC(=O)COC(=O)CNC(=O)c2ccc(C)s2)cc1,11.3%
6,Cc1ccc(N(C)S(=O)(=O)c2c(C)noc2/C=C/N(C)C)cc1,-1.41%
7,CCCn1c(=N)c(S(=O)(=O)c2ccc(F)cc2)cc2c(=O)n3ccccc3nc21,-8.53%
8,COc1cccc(/C=C/C(=O)NCCc2ccc3c(c2)OCCO3)c1,-17.4%
9,CC1CN(C2CCN(C(=O)c3ccccc3)CC2)CC(C)O1 (stereo not shown),-3.81%
10,COc1cc(/C=N/NC(=O)c2ccc(N(C)S(=O)(=O)c3ccccc3)cc2)cc(OC)c1OC,-12.7%
11,COc1c(F)c(F)c(C(=O)Nc2ccc(N3CCN(Cc4ccccc4)CC3)cc2)c(F)c1F,-14.6%
12,CC(C)(C)c1ccc(/C=C/C(=O)NC2CCS(=O)(=O)C2)cc1 (stereo not shown),-17.8%
13,CC(C)c1cc(-c2cc(C(=O)Nc3ccccc3)on2)nc(NCC2CC2)n1,10.3%
14,O=C(Oc1c(-c2ccccc2)c(=O)n2c3c(cccc13)CC2)c1ccccc1,-9.09%
15,O=C(CN1CCN(Cc2ccc(F)cc2)CC1)Nc1nc2ccccc2s1,-69.3%
16,CNS(=O)(=O)/C=C/c1ccccc1,18.2%
17,COc1ccccc1N1CCN(C(=O)/C=C/c2ccccc2)CC1,-33.8%
18,CC(C)(C)OC(=O)N1CCC(CNC(=O)Nc2ccccc2)CC1,20.7%
19,Cc1ccc(OCC(=O)N2CCN(c3nnc(-c4ccc(C)cc4)c4ccccc34)CC2)cc1,-49.3%
20,O=S(=O)(c1ccc2[nH]ccc2c1)N1CCCCCC1,-1.1%
21,CC1CCN(C(=O)CSc2ccc(-c3cccnc3)nn2)CC1,7.11%
22,COc1ccc(/C=C2\C(=N)N3N=C(CC(=O)N4CCCCC4)SC3=NC2=O)cc1,7.31%

row,SMILES,"hERG current change (%, negative = inhibition) at 10uM"
1,CN(Cc1cnn(Cc2ccccc2)c1)C(=O)c1cccc(S(=O)(=O)N2CCOCC2)c1,-10.3%
2,N#Cc1ccccc1NC(=O)COC(=O)c1ccc2c(c1)OCO2,12.8%
3,COc1ccc(-c2nnc(NC(=O)c3ccc(S(=O)(=O)N(C)CC4CCCO4)cc3)o2)c(OC)c1 (stereo not shown),10.3%
4,CC(=O)N1CCc2cc(S(=O)(=O)N3CCc4ccccc43)ccc21,-37.6%
5,O=C(Nc1ccc(O)c2c(=O)cc(-c3ccccc3Cl)oc12)c1cccs1,7.99%
6,CCc1ccccc1NC(=O)CN1CCN(C(=O)CCC(=O)N2CCC(c3ccccc3)=N2)CC1,-58%
7,COc1cc2nc(NC(=O)c3ccccc3)[nH]c(=O)c2cc1OC,15.5%
8,Cn1nc(C(F)(F)F)c(/C=N/OCc2c(Cl)cccc2Cl)c1Cl,6.03%
9,Cc1ccc2nc(SCC(=O)Nc3ccc4c(c3)OCCO4)[nH]c2c1,4.73%
10,CCCCC/C=C\C/C=C\C/C=C\CCCCC(=O)O,10.8%
11,C=CCOc1c2ccc(C(=O)NCc3ccc(C)cc3)cc2nn1C,-2.67%
12,Cc1ccc(/C=C/C(=O)N2CC(C)CC(C)C2)o1 (stereo not shown),-14.8%
13,CCC(=O)Nc1ccc(S(=O)(=O)NCC2CCCO2)cc1 (stereo not shown),9.87%
14,CCN(CC)S(=O)(=O)c1ccc(N2CCOCC2)c(NC(=O)C2CCCO2)c1 (stereo not shown),-0.0657%
15,C=CCC(C(=O)NC(C)c1ccccc1)C(=O)NC(C)c1ccccc1 (stereo not shown),-2.71%
16,O=C(OCc1ccc(Br)cc1)c1cccc(S(=O)(=O)N2CCCC2)c1,-6.47%
17,CN(c1ccccc1)S(=O)(=O)c1cccc(NC(=O)c2ccc3ncsc3c2)c1,7.29%
18,Cc1ccccc1NS(=O)(=O)c1ccc(OCC(=O)NCc2ccccn2)cc1,-44.6%
19,COc1ccc(N(CC(=O)NC2CCCCCC2)S(=O)(=O)c2ccc(C)cc2)cc1OC,16%
20,COc1ccc(S(=O)(=O)CCC(=O)Nc2c(C)n(C)n(-c3ccccc3)c2=O)cc1,2.02%
21,CCCCn1c(O)c(C=NCc2ccc3c(c2)OCO3)c(=O)[nH]c1=O,-16.6%
22,COCCn1c(CCC(=O)O)nc2c1c(=O)[nH]c(=O)n2CC(C)C,-2.38%

row,SMILES,"hERG current change (%, negative = inhibition) at 10uM"
1,O=C(NNC(=O)c1cc([N+](=O)[O-])ccc1Cl)c1cccnc1,13.4%
2,COc1cc(/C=C2\CCC(C3CCCC3)C2=O)ccc1OC(C)C (stereo not shown),5.66%
3,CCN(CC(=O)NCc1ccc(Cl)cc1)C(=O)CSc1ccccc1,-65.6%
4,Cn1c(SCC(=O)NC2CCCC2)nnc1C(F)(F)F,-6.87%
5,Cc1ccccc1CSc1nccn1-c1ccccc1,-8.94%
6,CC(=O)Nc1c(Br)cc(N2C(=O)CCC2=O)cc1Br,12%
7,Cc1ccc(C(=O)NC(=S)NNC(=O)c2ccc([N+](=O)[O-])cc2)cc1,4.74%
8,N#CCOc1coc(CN2CCN(c3cccc(Cl)c3)CC2)cc1=O,-0.696%
9,O.O=C(OCC1OC2C(Oc3nc(=O)ccn32)C1O)c1ccccc1 (stereo not shown),-0.213%
10,COc1cc2c(cc1OC)C1(C)N(CC2)C(C(C)=O)=NN1c1ccc(Cl)cc1 (stereo not shown),3.74%
11,Cc1onc(-c2c(Cl)cccc2Cl)c1C(=O)NC(=S)N1CCOCC1,6%
12,CC(C(=O)NCC1CCCO1)n1cccc1C(=O)c1ccccc1 (stereo not shown),15.1%
13,CC(O/N=C\c1ccccc1O)C(=O)Nc1ccccc1C(=O)N1CCOCC1 (stereo not shown),22.8%
14,CC(C)N1C(=O)/C(=C\c2nc3ccccc3c(=O)[nH]2)c2ccccc21,23.9%
15,Cc1sc2nc(SCC(=O)Nc3c(C)n(C)n(-c4ccccc4)c3=O)n(C)c(=O)c2c1C,9.4%
16,COC(=O)c1cc(NS(=O)(=O)c2ccc(NC(C)=O)cc2)ccc1Cl,5.13%
17,Cc1ccc(S(=O)(=O)N2Cc3ccccc3CC2C(=O)Nc2cc(C)on2)cc1 (stereo not shown),-17.8%
18,COC(=O)C1=C(O)/C(=C\c2ccc(CNS(=O)(=O)c3ccc(Cl)cc3)o2)N=C1C,9.46%
19,CC1(C)CC(=O)C2=C(C1)N(Cc1ccccc1)C(=O)C2(O)C(F)(F)F (stereo not shown),-4.64%
20,CC(NC(=O)Cc1ccccc1)C1COc2ccccc2O1 (stereo not shown),7.25%
21,COc1ccc([C@H]2CC(=O)C=C(c3ccc4c5c(cccc35)CC4)C2)cc1,16%
22,Cc1ccc(-n2nc3c(=O)n(CCCC(=O)NCc4cccc(F)c4)nc(C)c3c2C)cc1,-21.7%

row,SMILES,"hERG current change (%, negative = inhibition) at 10uM"
1,O=C(O)c1cc(NC(=O)C2CCCO2)cc(C(=O)O)c1 (stereo not shown),29.6%
2,Cc1nc(Sc2ccc(Br)cc2)c(C#N)c(C)c1[N+](=O)[O-],20.1%
3,CSCC[C@H](NC(=O)C1CCC(CNC(=O)[C@@H](N)Cc2ccccc2)CC1)C(=O)O.Cl (stereo partly shown),-1.56%
4,CCCn1c(N)c(C(=O)CSc2nnc(-c3ccoc3C)n2C)c(=O)n(C)c1=O,-7.82%
5,CCc1ccc(OCC(=O)N2CCN(Cc3ccc4c(c3)OCO4)CC2)cc1,-15.9%
6,N/C(=N\OC(=O)c1ccc2c(c1)OCO2)c1cccc([N+](=O)[O-])c1,8.13%
7,CCOc1ccc(-c2nnc(SCC(=O)N3CCN(c4ccccc4)CC3)o2)cc1,8.26%
8,CC(C)(C)C1(C)OC(C(N)=O)C(C(N)=O)O1 (stereo not shown),15.3%
9,CC(=O)Nc1ccc(S(=O)(=O)Nc2ccc(C)c([N+](=O)[O-])c2)cc1,-19.6%
10,Cc1cc2cc(CNC(=O)Cc3ccc([N+](=O)[O-])cc3)ccc2[nH]1,-50.7%
11,Cc1ccc(S(=O)(=O)NCc2ccccc2)cc1C(=O)N(C)Cc1ccc(F)cc1,5.11%
12,COc1ccc(NC(=O)C2CCCN2C(=O)Nc2ccccc2)cc1OC (stereo not shown),3.54%
13,N#Cc1nc(N2CCCC2)nc(N2CCCC2)n1,-8.34%
14,CCOc1cc2[nH]c(=S)n(CCCN3CCOCC3)c(=O)c2cc1OCC,-18.5%
15,NS(=O)(=O)c1ccc(CCNC(=O)CN2CCC(Cc3ccccc3)CC2)cc1,-34.1%
16,Cc1ccc(/C=C/C(=O)Nc2cccc(S(=O)(=O)N3CCOCC3)c2)o1,-19.9%
17,COc1ccc(Cl)cc1C(=O)N(Cc1nc(-c2cccc(C)c2)no1)C(C)C,-14%
18,O=C(COC(=O)CSc1cc(Cl)ccc1Cl)Nc1ncc(C(F)(F)F)cc1Cl,-0.654%
19,CCn1c(SCC(=O)N2CCCCC2)nnc1-c1ccc(S(=O)(=O)N2CCN(C)CC2)cc1,-9%
